From the supplement of paper PMC4604168 (melanoma cell lines)
This is one part of the list. Many values rest on one well or one pass, so single values are uncertain.

Key:
Assay in all cases: cell count relative to DMSO control; melanoma cells; higher = more viable cells
Conditions in all cases: library dose: standard library concentration; 72 h
G361 = test system: G361
IPC-298 = test system: IPC-298
IST-MEL1 = test system: IST-MEL1
LB2518-MEL = test system: LB2518-MEL
LOXIMVI = test system: LOXIMVI
MEL-HO = test system: MEL-HO
MZ2-MEL = test system: MZ2-MEL
MeWo = test system: MeWo
RPMI7951 = test system: RPMI7951
RVH-421 = test system: RVH-421
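Further: cells treated in 1,536-well plates, then fixed and DAPI-stained, with nuclei counted from automated high-throughput microscope images.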

| Compound | cell count (G361) | cell count (IPC-298) | cell count (IST-MEL1) | cell count (LB2518-MEL) | cell count (LOXIMVI) | cell count (MEL-HO) | cell count (MZ2-MEL) | cell count (MeWo) | cell count (RPMI7951) | cell count (RVH-421) |
| --- | --- | --- | --- | --- | --- | --- | --- | --- | --- | --- |
| Cn1cncc1[C@@](N)(c1ccc(Cl)cc1)c1ccc2c(c1)c(-c1cccc(Cl)c1)cc(=O)n2C [tipifarnib] + O=C(O)c1ccc(-c2c[nH]c3ncc(-c4ccccc4)cc23)cc1C1CCCC1 [GSK650394] (first compound 0.05 µM, partner dose 0.8 µM) | 54.2% | 79.3% | 60.2% | 64.6% | 82.3% | 82.8% | 105% | 74.7% | 63.7% | 103% |
| C[C@@H]1CCN(C(=O)CC#N)C[C@@H]1N(C)c1ncnc2[nH]ccc12 + CN(NC(=O)CC(=O)NN(C)C(=S)c1ccccc1)C(=S)c1ccccc1 [STA4783] (first compound 5 µM, partner dose 0.03 µM) | 40.1% | 92.7% | 27.4% | 3.34% | 79.9% | 91.7% | 150% | 16.9% | 108% | 65.7% |
| O=c1[nH]nc(Sc2ncc([N+](=O)[O-])s2)n1-c1ccc2c(c1)OCCO2 + Oc1cc(-c2nc(-c3ccccc3)[nH]c2-c2ccncc2)ccc1Cl [L779450] (first compound 1 µM, partner dose 1 µM) | 68.8% | 77.4% | 86.7% | 85.9% | 93.9% | 81.7% | 92.5% | 99.8% | 125% | 62.8% |
| O=C(O)c1ccc(-c2c[nH]c3ncc(-c4ccccc4)cc23)cc1C1CCCC1 + Cn1cc(/C=C2\C(=O)Nc3cccnc32)c2ccccc21 [GW441756] (first compound 0.8 µM, partner dose 2 µM) | 71.9% | 85.1% | 80.2% | 156% | 101% | 77% | 85.1% | 72.7% | 85.5% | 91.8% |
| O=C(O)c1ccc(-c2c[nH]c3ncc(-c4ccccc4)cc23)cc1C1CCCC1 + CN(NC(=O)CC(=O)NN(C)C(=S)c1ccccc1)C(=S)c1ccccc1 [STA4783] (first compound 0.8 µM, partner dose 0.03 µM) | 33.4% | 61.4% | 9.29% | 27.3% | 55.4% | 64.1% | 102% | 20.2% | 41.7% | 44.7% |
| O=C(Nc1cccc(Cl)c1)Nc1ncc(CCNc2ncnc3ccsc23)s1 + O=S(=O)(c1ccccc1)N(CC(F)(F)F)c1ccc(C(O)(C(F)(F)F)C(F)(F)F)cc1 [T0901317] (first compound 0.004 µM, partner dose 7 µM) | 53.9% | 55.1% | 51.3% | 73% | 85.6% | 77.9% | 62.7% | 69.6% | 52.2% | 58.6% |
| C[C@@H]1CCN(C(=O)CC#N)C[C@@H]1N(C)c1ncnc2[nH]ccc12 + CCCCCCCCCCCC1=C(O)C(=O)C=C(O)C1=O [Embelin] (first compound 5 µM, partner dose 6 µM) | 77.2% | 77.2% | 71.5% | 75.8% | 95.2% | 80.5% | 83.6% | 123% | 106% | 67.2% |
| O=C(O)c1ccc(-c2c[nH]c3ncc(-c4ccccc4)cc23)cc1C1CCCC1 + COc1cc2c(Oc3ccc4[nH]c(C)cc4c3F)ncnc2cc1OCCCN1CCCC1 [cediranib] (first compound 0.8 µM, partner dose 2 µM) | 57.8% | 110% | 79.2% | 97.3% | 74.7% | 76.8% | 83.3% | 94.3% | 63.5% | 76.6% |
| O=c1[nH]nc(Sc2ncc([N+](=O)[O-])s2)n1-c1ccc2c(c1)OCCO2 + C=CCNC1=C2C[C@@H](C)C[C@H](OC)[C@H](O)[C@@H](C)/C=C(\C)[C@H](OC(N)=O)[C@@H](OC)/C=C\C=C(/C)C(=O)NC(=CC1=O)C2=O [Tanespimycin] (first compound 1 µM, partner dose 0.01 µM) | 74% | 88.8% | 70.5% | 79.4% | 103% | 72.7% | 96.1% | 63.9% | 24.8% | 72.9% |
| C[C@@H]1CCN(C(=O)CC#N)C[C@@H]1N(C)c1ncnc2[nH]ccc12 + O=C(Nc1ccccc1)c1cc([N+](=O)[O-])ccc1Cl [GW9662] (first compound 5 µM, partner dose 10 µM) | 75.2% | 112% | 98.5% | 29.8% | 28.1% | 78.9% | 75.5% | 74.5% | 94.3% | 78.9% |
| O=c1[nH]nc(Sc2ncc([N+](=O)[O-])s2)n1-c1ccc2c(c1)OCCO2 + CCc1ccc(CCOc2ccc(CC3SC(=O)NC3=O)cc2)nc1 [pioglitazone] (first compound 1 µM, partner dose 10 µM) | 95.4% | 96.1% | 96.6% | 89.5% | 89.6% | 115% | 127% | 101% | 92.8% | 85% |
| O=c1[nH]nc(Sc2ncc([N+](=O)[O-])s2)n1-c1ccc2c(c1)OCCO2 + O=C(/C=C/c1cccnc1)NCCCCC1CCN(C(=O)c2ccccc2)CC1 [FK866] (first compound 1 µM, partner dose 0.05 µM) | 3.24% | 31% | 59.1% | 58.6% | 69.6% | 49.6% | 39.3% | 92.7% | 68.8% | 44% |
| CC1(C)NC(=O)N(c2ccc([N+](=O)[O-])c(C(F)(F)F)c2)C1=O [nilutamide] + O=S(=O)(c1ccccc1)N(CC(F)(F)F)c1ccc(C(O)(C(F)(F)F)C(F)(F)F)cc1 [T0901317] (first compound 5 µM, partner dose 7 µM) | 66.4% | 77.2% | 98.4% | 98.5% | 80.2% | 96.7% | 95.6% | 78.7% | 91.9% | 88.4% |
| O=C(Nc1cccc(Cl)c1)Nc1ncc(CCNc2ncnc3ccsc23)s1 + Cn1cncc1[C@@](N)(c1ccc(Cl)cc1)c1ccc2c(c1)c(-c1cccc(Cl)c1)cc(=O)n2C [tipifarnib] (first compound 0.004 µM, partner dose 0.05 µM) | 60.5% | 74.8% | 41.8% | 73.7% | 64.7% | 79.3% | 62.1% | 49.9% | 48.4% | 78.4% |
| O=C(Nc1cccc(Cl)c1)Nc1ncc(CCNc2ncnc3ccsc23)s1 + N#Cc1c(O)c2c(-c3ccc(-c4ccccc4O)cc3)csc2[nH]c1=O [A769662] (first compound 0.004 µM, partner dose 10 µM) | 67% | 85% | 64.4% | 90.6% | 81.6% | 74.1% | 72.1% | 44.1% | 60.6% | 91.6% |
| O=c1[nH]nc(Sc2ncc([N+](=O)[O-])s2)n1-c1ccc2c(c1)OCCO2 + CCCCCCCCc1ccc(CCC(N)(CO)CO)cc1 [fingolimod] (first compound 1 µM, partner dose 10 µM) | 0.648% | 39.3% | 5.46% | 0.604% | 12.7% | 1.53% | 11.2% | 12.6% | 0.266% | 7.93% |
| O=c1[nH]nc(Sc2ncc([N+](=O)[O-])s2)n1-c1ccc2c(c1)OCCO2 + CC(C)(C)c1cnc(CSc2cnc(NC(=O)C3CCNCC3)s2)o1 [SNS-032] (first compound 1 µM, partner dose 0.05 µM) | 91% | 131% | 88.8% | 85.2% | 80.7% | 102% | 118% | 95.5% | 47.6% | 86.8% |
| COc1cc(Nc2ncc(F)c(Nc3ccc4c(n3)NC(=O)C(C)(C)O4)n2)cc(OC)c1OC [Tamatinib] + Cc1cc([N+](=O)[O-])ccc1NS(=O)(=O)c1cc(Cl)ccc1Cl [FH535] (first compound 2 µM, partner dose 5 µM) | 34.2% | 35.6% | 42.3% | 55.2% | 52.8% | 39.3% | 27.5% | 63.9% | 38.6% | 54.4% |
| COc1cc(Nc2ncc(F)c(Nc3ccc4c(n3)NC(=O)C(C)(C)O4)n2)cc(OC)c1OC [Tamatinib] + Cc1cc(N2CCOCC2)cc2[nH]c(-c3c(NC[C@@H](O)c4cccc(Cl)c4)cc[nH]c3=O)nc12 [BMS536924] (first compound 2 µM, partner dose 1 µM) | 65.9% | 79% | 53.6% | 91.2% | 26.7% | 67.5% | 81.8% | 60.7% | 24.5% | 95.1% |
| O=c1[nH]nc(Sc2ncc([N+](=O)[O-])s2)n1-c1ccc2c(c1)OCCO2 + CC1(C)NC(=O)N(c2ccc([N+](=O)[O-])c(C(F)(F)F)c2)C1=O [nilutamide] (first compound 1 µM, partner dose 5 µM) | 95.1% | 106% | 83.8% | 85.8% | 80.1% | 91.7% | 121% | 97.7% | 107% | 95.3% |
| COc1cc(Nc2ncc(F)c(Nc3ccc4c(n3)NC(=O)C(C)(C)O4)n2)cc(OC)c1OC [Tamatinib] + CC(C)(C)c1cnc(CSc2cnc(NC(=O)C3CCNCC3)s2)o1 [SNS-032] (first compound 2 µM, partner dose 0.05 µM) | 82.3% | 101% | 73.4% | 82.6% | 31.6% | 84.2% | 78.7% | 76.9% | 26.1% | 91.7% |
| CC1(C)NC(=O)N(c2ccc([N+](=O)[O-])c(C(F)(F)F)c2)C1=O [nilutamide] + CCN(CC)CCCCNc1ncc2cc(-c3cc(OC)cc(OC)c3)c(NC(=O)NC(C)(C)C)nc2n1 [PD173074] (first compound 5 µM, partner dose 0.5 µM) | 85.4% | 102% | 102% | 98.1% | 69% | 109% | 108% | 102% | 141% | 101% |
